According to patent US20230061378A1 (SUZHOU ALPHAMAB, published 2023):

Experiments:
pertussis toxin (PT) [1] = biological target: T1, pertussis toxin (PT) (Bordetella pertussis); assay: BLI in-tandem binning on PT-biotin; competitor (Ab1, bound first): iPT26FC
T1 construct: also called recombinant pertussis toxin protein; PT toxin

pertussis toxin (PT) [2] = biological target: T1, pertussis toxin (PT); assay: cell-based or functional assay
pertussis toxin (PT) [3] = biological target: T1, pertussis toxin (PT); assay: BLI in-tandem binning on PT-biotin; competitor (Ab1, bound first): iPT42FC
pertussis toxin (PT) [4] = biological target: T1, pertussis toxin (PT); assay: BLI in-tandem binning on PT-biotin; competitor (Ab1, bound first): iPT7FC
pertussis toxin (PT) [5] = biological target: T1, pertussis toxin (PT); assay: BLI (Octet), Fc fusion on AHC biosensor, PT 6.25-100 nM in solution, 1:1 model
pertussis toxin (PT) [6] = biological target: T1, pertussis toxin (PT); assay: cell-based or functional assay; remark: listed apart in the source
pertussis toxin (PT) [7] = biological target: T1, pertussis toxin (PT); assay: BLI in-tandem binning on PT-biotin; competitor (Ab1, bound first): iPT15FC
pertussis toxin (PT) [8] = biological target: T1, pertussis toxin (PT); assay: BLI in-tandem binning on PT-biotin; competitor (Ab1, bound first): iPT35FC
pertussis toxin (PT) [9] = biological target: T1, pertussis toxin (PT); assay: BLI in-tandem binning on PT-biotin; competitor (Ab1, bound first): iPT12FC
pertussis toxin (PT) [10] = biological target: T1, pertussis toxin (PT); assay: BLI in-tandem binning on PT-biotin; competitor (Ab1, bound first): 11E6
pertussis toxin (PT) [11] = biological target: T1, pertussis toxin (PT); assay: BLI in-tandem binning on PT-biotin; competitor (Ab1, bound first): iPT22FC
pertussis toxin (PT) [12] = biological target: T1, pertussis toxin (PT); assay: BLI in-tandem binning on PT-biotin; competitor (Ab1, bound first): 1B7
pertussis toxin (PT) [13] = biological target: T1, pertussis toxin (PT); assay: ELISA, PT coated 0.3 µg/well, anti-human IgG Fc-HRP, four-parameter fit
pertussis toxin (PT) [14] = biological target: T1, pertussis toxin (PT); assay: cell-based or functional assay; remark: listed apart in the source
pertussis toxin (PT) [15] = biological target: T1, pertussis toxin (PT); assay: BLI, tetravalent Fc fusion on AHC biosensor, PTpuri 6.25-100 nM in solution

B1: iPT12Fc (Fc fusion)
chain: QVQLQESGGGSVQAGGSLRLSCAASGYTYSSYCMGWFRQAPGKEREGVAGIESDGSTSYADSVKGRFSISKDNVKNTLYLQMNTLKPEDTGIYYCAVQSPLPGGSWYSLCGGADFGYWGQGTQVTVSS[human IgG1 Fc cut from this listing]
Ab2 with Ab1/Ab2 without Ab1 (pertussis toxin (PT) [1]): 110%
Completely neutralizing concentration (CHO-K1 cells with PT toxin) (pertussis toxin (PT) [2]): 1.12 µg/mL
Ab2 with Ab1/Ab2 without Ab1 (pertussis toxin (PT) [3]): 105%
Ab2 with Ab1/Ab2 without Ab1 (pertussis toxin (PT) [4]): 17.4%
Kd (pertussis toxin (PT) [5]): 89.1 pM
koff (pertussis toxin (PT) [5]): 5.51e-05 s⁻¹
kon (pertussis toxin (PT) [5]): 618000 M⁻¹ s⁻¹
Concentration for completely neutralizing PTToxin (pertussis toxin (PT) [6]): 0.42 µg/mL
Ab2 with Ab1/Ab2 without Ab1 (pertussis toxin (PT) [7]): 108%
Ab2 with Ab1/Ab2 without Ab1 (pertussis toxin (PT) [8]): 120%
Ab2 with Ab1/Ab2 without Ab1 (pertussis toxin (PT) [9]): 11.9%
Ab2 with Ab1/Ab2 without Ab1 (pertussis toxin (PT) [10]): 15%
Ab2 with Ab1/Ab2 without Ab1 (pertussis toxin (PT) [11]): 78.5%
Ab2 with Ab1/Ab2 without Ab1 (pertussis toxin (PT) [12]): 88%

B2: iPT22Fc (Fc fusion)
chain: QVQLQESGGGSVQAGGSLQLSCAATDITYSRCMAWFRQAPGKSREGVAALSTNGGSTWYADSVKGRFTISRDGAKNTIYLQMRSLKPEDTAMYYCADSSFFSCRDCSGGDCPRSRDYKYWGQGTQVTVSS[human IgG1 Fc cut from this listing]
Ab2 with Ab1/Ab2 without Ab1 (pertussis toxin (PT) [1]): 51%
Completely neutralizing concentration (CHO-K1 cells with PT toxin) (pertussis toxin (PT) [2]): 3.13 µg/mL
Ab2 with Ab1/Ab2 without Ab1 (pertussis toxin (PT) [3]): 45.6%
Ab2 with Ab1/Ab2 without Ab1 (pertussis toxin (PT) [4]): 41.7%
Kd (pertussis toxin (PT) [5]): 739 pM
koff (pertussis toxin (PT) [5]): 0.000379 s⁻¹
kon (pertussis toxin (PT) [5]): 513000 M⁻¹ s⁻¹
Ab2 with Ab1/Ab2 without Ab1 (pertussis toxin (PT) [7]): 6.73%
Ab2 with Ab1/Ab2 without Ab1 (pertussis toxin (PT) [8]): 30.6%
Ab2 with Ab1/Ab2 without Ab1 (pertussis toxin (PT) [9]): 53.3%
Ab2 with Ab1/Ab2 without Ab1 (pertussis toxin (PT) [10]): 76%
Ab2 with Ab1/Ab2 without Ab1 (pertussis toxin (PT) [11]): 7.1%
Ab2 with Ab1/Ab2 without Ab1 (pertussis toxin (PT) [12]): 79%

B3: iPT42Fc (Fc fusion)
chain: QVQLQESGGGSVQAGGSLRLSCAASGYTYSDVCMGWFRQAPGKEREGVAAIDSVGNTNYADSVKGRFTISKDNAKNTLYLQMNSLKPEDTAMYYCAAQRCLGWVPLVPHEYGFWGQGTQVTVSS[human IgG1 Fc cut from this listing]
Ab2 with Ab1/Ab2 without Ab1 (pertussis toxin (PT) [1]): 93.6%
Ab2 with Ab1/Ab2 without Ab1 (pertussis toxin (PT) [3]): 10.5%
Ab2 with Ab1/Ab2 without Ab1 (pertussis toxin (PT) [4]): 79.6%
Kd (pertussis toxin (PT) [5]): 375 pM
koff (pertussis toxin (PT) [5]): 0.000145 s⁻¹
kon (pertussis toxin (PT) [5]): 386000 M⁻¹ s⁻¹
Ab2 with Ab1/Ab2 without Ab1 (pertussis toxin (PT) [7]): 79.8%
Ab2 with Ab1/Ab2 without Ab1 (pertussis toxin (PT) [8]): 98.6%
Ab2 with Ab1/Ab2 without Ab1 (pertussis toxin (PT) [9]): 79%
Ab2 with Ab1/Ab2 without Ab1 (pertussis toxin (PT) [10]): 86%
Ab2 with Ab1/Ab2 without Ab1 (pertussis toxin (PT) [11]): 84.2%
Ab2 with Ab1/Ab2 without Ab1 (pertussis toxin (PT) [12]): 88%

B4: huPT42v4Fc (Fc fusion)
chain: QVQLVESGGGLVQPGGSLRLSCAASGYTYSDVCMGWFRQAPGKGLEGVAAIDSVGNTNYADSVKGRFTISRDNSKNTLYLQMNSLRAEDTAVYYCAAQRCLGWVPLVPHEYGYWGQGTLVTVSS[human IgG1 Fc cut from this listing]
notes: also called huPT42V4-ld-Fc
EC50 (pertussis toxin (PT) [13]): 0.0264 µg/mL
Minimum neutralizing concentration (CHO-K1 cells with PT toxin) (pertussis toxin (PT) [14]): ~32 µg/mL

B5: huPT42v6Fc (Fc fusion)
chain: QVQLVESGGGLVQPGGSLRLSCAASGYTYSDVCMGWFRQAPGKGLEGVAAIDSVGNTNYADSVKGRFTISKDNSKNTLYLQMNSLRAEDTAVYYCAAQRCLGWVPLVPHEYGYWGQGTLVTVSS[human IgG1 Fc cut from this listing]
notes: also called huPT42V6-ld-Fc
EC50 (pertussis toxin (PT) [13]): 0.0256 µg/mL
Minimum neutralizing concentration (CHO-K1 cells with PT toxin) (pertussis toxin (PT) [14]): ~16 µg/mL

B6: iPT42n12Fc (Fc fusion)
chain: QVQLQESGGGSVQAGGSLRLSCAASGYTYSDVCMGWFRQAPGKEREGVAAIDSVGNTNYADSVKGRFTISKDNAKNTLYLQMNSLKPEDTAMYYCAAQRCLGWVPLVPHEYGFWGQGTQVTVSSQVQLQESGGGSVQAGGSLRLSCAASGYTYSSYCMGWFRQAPGKEREGVAGIESDGSTSYADSVKGRFSISKDNVKNTLYLQMNTLKPEDTGIYYCAVQSPLPGGSWYSLCGGADFGYWGQGTQVTVSS[human IgG1 Fc cut from this listing]
Kd (pertussis toxin (PT) [15]): 237 pM
koff (pertussis toxin (PT) [15]): 0.000134 s⁻¹
kon (pertussis toxin (PT) [15]): 564000 M⁻¹ s⁻¹
Concentration for completely neutralizing PTToxin (pertussis toxin (PT) [6]): 0.333 µg/mL

B7: iPT15n12Fc (Fc fusion)
chain: QVQLQESGGGSVQAGGSLRLSCAASGYTYGSYCMAWFRQAPGKEREGVAGVDSDGTTRYADSVKGRFTISKDNAENTLYLQMNSLKPEDTSMYYCAAGVCGTGGSWYEGDAGLFMYEFAYWGQGTQVTVSSQVQLQESGGGSVQAGGSLRLSCAASGYTYSSYCMGWFRQAPGKEREGVAGIESDGSTSYADSVKGRFSISKDNVKNTLYLQMNTLKPEDTGIYYCAVQSPLPGGSWYSLCGGADFGYWGQGTQVTVSS[human IgG1 Fc cut from this listing]
Kd (pertussis toxin (PT) [15]): 183 pM
koff (pertussis toxin (PT) [15]): 0.000112 s⁻¹
kon (pertussis toxin (PT) [15]): 614000 M⁻¹ s⁻¹
Concentration for completely neutralizing PTToxin (pertussis toxin (PT) [6]): 0.111 µg/mL

B8: iPT20Fc (Fc fusion)
chain: QVQLQESGGGSVQAGGSLRLSCAASEYRYCMAWFRQAPGKEREGVAGIYIGDRTVYSDSVKGRFTISQDNADNTVYLQMNSLKPEDTAMYYCATVDLICPSDWAQRLQYQYWGQGTQVTVSS[human IgG1 Fc cut from this listing]
Completely neutralizing concentration (CHO-K1 cells with PT toxin) (pertussis toxin (PT) [2]): 50 µg/mL
Kd (pertussis toxin (PT) [5]): 221 pM
koff (pertussis toxin (PT) [5]): 9.46e-05 s⁻¹
kon (pertussis toxin (PT) [5]): 467000 M⁻¹ s⁻¹

B9: iPT7Fc (Fc fusion)
chain: QVQLQESGGGSVQPGGSLRLSCAASGYTYSSYCMGWFRQAPGKEREGVAAIDSDGRTSYADFVKGRFTISKDNAKNTLYLQMNSLKPEDTAKYYCATEQRIGGSWYDLCGGADFGYWGQGTQVTVSS[human IgG1 Fc cut from this listing]
Ab2 with Ab1/Ab2 without Ab1 (pertussis toxin (PT) [1]): 117%
Completely neutralizing concentration (CHO-K1 cells with PT toxin) (pertussis toxin (PT) [2]): 1.56 µg/mL
Ab2 with Ab1/Ab2 without Ab1 (pertussis toxin (PT) [3]): 110%
Ab2 with Ab1/Ab2 without Ab1 (pertussis toxin (PT) [4]): 12%
Minimum neutralizing concentration (CHO-K1 cells with PT toxin) (pertussis toxin (PT) [14]): < 1 µg/mL
Ab2 with Ab1/Ab2 without Ab1 (pertussis toxin (PT) [7]): 116%
Ab2 with Ab1/Ab2 without Ab1 (pertussis toxin (PT) [8]): 119%
Ab2 with Ab1/Ab2 without Ab1 (pertussis toxin (PT) [9]): 16.3%
Ab2 with Ab1/Ab2 without Ab1 (pertussis toxin (PT) [10]): 36%
Ab2 with Ab1/Ab2 without Ab1 (pertussis toxin (PT) [11]): 82.7%
Ab2 with Ab1/Ab2 without Ab1 (pertussis toxin (PT) [12]): 86%

B10: huPT7v1Fc (Fc fusion)
chain: QVQLVESGGGSVQAGGSLRLSCAASGYTYSSYCMGWFRQAPGKEREGVAAIDSDGRTSYADFVKGRFTISKDNSKNTLYLQMNSLRAEDTAVYYCATEQRIGGSWYDLCGGADFGYWGQGTLVTVSS[human IgG1 Fc cut from this listing]
notes: also called huPT7V1-ld-Fc
EC50 (pertussis toxin (PT) [13]): 0.0349 µg/mL
Minimum neutralizing concentration (CHO-K1 cells with PT toxin) (pertussis toxin (PT) [14]): < 0.5 µg/mL

B11: huPT7v11Fc (Fc fusion)
chain: QVQLVESGGGLVQPGGSLRLSCAASGYTYSSYCMGWFRQAPGKGLEGVAAIDSDGRTSYADFVKGRFTISKDNSKNTLYLQMNSLKPEDTAVYYCATEQRIGGSWYDLCGGADFGYWGQGTLVTVSS[human IgG1 Fc cut from this listing]
notes: also called huPT7V11-ld-Fc; huPT7v11Fe
EC50 (pertussis toxin (PT) [13]): 0.0333 µg/mL
Minimum neutralizing concentration (CHO-K1 cells with PT toxin) (pertussis toxin (PT) [14]): < 0.5 µg/mL

B12: huPT15v11cFc (Fc fusion)
chain: QVQLVESGGGLVQPGGSLRLSCAASGYTYGSYCMAWFRQAPGKEREGVAGVDSDGTTRYADSVKGRFTISRDNSENTLYLQMNSLKPEDTAVYYCAAGVCGTGGSWYEGDAGLFMYEFAYWGQGTLVTVSS[human IgG1 Fc cut from this listing]
notes: also called huPT15V11c-ld-Fc
EC50 (pertussis toxin (PT) [13]): 0.0205 µg/mL
Minimum neutralizing concentration (CHO-K1 cells with PT toxin) (pertussis toxin (PT) [14]): < 1 µg/mL

B13: huPT15v7cFc (Fc fusion)
chain: QVQLVESGGGLVQPGGSLRLSCAASGYTYGSYCMAWFRQAPGKEREGVAGVDSDGTTRYADSVKGRFTISKDNSENTLYLQMNSLRAEDTAVYYCAAGVCGTGGSWYEGDAGLFMYEFAYWGQGTLVTVSS[human IgG1 Fc cut from this listing]
notes: also called huPT15V7c-ld-Fc
EC50 (pertussis toxin (PT) [13]): 0.0221 µg/mL
Minimum neutralizing concentration (CHO-K1 cells with PT toxin) (pertussis toxin (PT) [14]): < 1 µg/mL
